# T1: IL-2Rβ receptor with an avi tag and an His6 tag at the C-terminus (human, UniProt P14784 27-240, biotin on the avi tag (enzymatic labelling with BirA))
# T1 construct: Biotin-labelled and loaded on the SA sensor in the ForteBio assays; also called CD122; IL-2Rβ-His
# T1 sequence: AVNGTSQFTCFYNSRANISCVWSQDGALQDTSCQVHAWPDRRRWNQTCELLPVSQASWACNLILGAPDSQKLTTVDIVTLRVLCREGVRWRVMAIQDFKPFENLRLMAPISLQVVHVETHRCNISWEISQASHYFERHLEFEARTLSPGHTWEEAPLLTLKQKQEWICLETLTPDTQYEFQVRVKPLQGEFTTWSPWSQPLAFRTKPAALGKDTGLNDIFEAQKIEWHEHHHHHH
# T2: IL-2Rα receptor with an avi tag and an His6 tag at the C-terminus (human, UniProt P01589 22-217, biotin on the avi tag (enzymatic labelling with BirA))
# T2 construct: Biotin-labelled and loaded on the SA sensor in the ForteBio assays; also called CD25; IL-2Rα-His
# T2 sequence: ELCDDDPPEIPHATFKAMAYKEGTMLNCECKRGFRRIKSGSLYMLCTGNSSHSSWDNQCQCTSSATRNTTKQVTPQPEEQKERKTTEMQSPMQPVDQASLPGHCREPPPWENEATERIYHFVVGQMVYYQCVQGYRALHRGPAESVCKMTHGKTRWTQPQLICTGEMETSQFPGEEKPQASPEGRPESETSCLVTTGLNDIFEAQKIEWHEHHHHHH
# B1: 2257 (Fc fusion)
# chain: APASSSTKKTQLQLEHLLLDLQMILNGINNYKNPELEEMLTFKFYMPKKATELKHLQCLEEELKPLEEVLNLAQSKNFHLRPRDLISNINVIVLELKGSETTFMCEYADETATIVEFLNRWITFSQSIISTLTGGGGSGGGGS[omitted - human IgG1 Fc with changes]
# notes: Format 1 homodimer
# B2: 2258 (Fc fusion)
# chain: APASSSTKKTQLQLEHLLLDLQMILNGINNYKNPELEEMLTFKFYMPKKATELKHLQCLEEELKPLEEVLNLAQSKNFHLRPRNLISNINVIVLELKGSETTFMCEYADETATIVEFLNRWITFSQSIISTLTGGGGSGGGGS[omitted - human IgG1 Fc with changes]
# notes: Format 1 homodimer
# B3: 2262 (Fc fusion)
# chain: APASSSTKKTQLQLENLLLDLQMILNGINNYKNPELEEMLTFKFYMPKKATELKHLQCLEEELKPLEEVLNLAQSKNFHLRPRDLISNINVIVLELKGSETTFMCEYADETATIVEFLNRWITFSQSIISTLTGGGGSGGGGS[omitted - human IgG1 Fc with changes]
# notes: Format 1 homodimer
# B4: 2263 (Fc fusion)
# chain: APASSSTKKTQLQLENLLLDLQMILNGINNYKNPELEEMLTFKFYMPKKATELKHLQCLEEELKPLEEVLNLAQSKNFHLRPRNLISNINVIVLELKGSETTFMCEYADETATIVEFLNRWITFSQSIISTLTGGGGSGGGGS[omitted - human IgG1 Fc with changes]
# notes: Format 1 homodimer
# B5: Y144 (IL-2^.Y30E1.15BCL.T3A-2*(G4S)-FcLALA) (Fc fusion)
# chain: APASSSTKKTQLQLEHLLLDLQMILNGINNYKNPELEEMLTAKFYMPKKATELKHLQCLEEELKPLEEVLNLAGDASIHDLISNINVIVLELKGSETTFMCEYADETATIVEFLNRWITFSQSIISTLTGGGGSGGGGS[omitted - human IgG1 Fc with changes]
# notes: Format 1 homodimer
# B6: 2092 (Fc fusion)
# chain: APASSSTKKTQLQLQHLLLDLQMILNGINNYKNPELEEMLTAKFYMPKKATELKHLQCLEEELKPLEEVLNLAGDASIHDLISNINVIVLELKGSETTFMCEYADETATIVEFLNRWITFSQSIISTLTGGGGSGGGGS[omitted - human IgG1 Fc with changes]
# notes: Format 1 homodimer
# B7: 2096 (Fc fusion)
# chain: APASSSTKKTQLQLENLLLDLQMILNGINNYKNPELEEMLTAKFYMPKKATELKHLQCLEEELKPLEEVLNLAGDASIHDLISNINVIVLELKGSETTFMCEYADETATIVEFLNRWITFSQSIISTLTGGGGSGGGGS[omitted - human IgG1 Fc with changes]
# notes: Format 1 homodimer
# B8: 2097 (Fc fusion)
# chain: APASSSTKKTQLQLETLLLDLQMILNGINNYKNPELEEMLTAKFYMPKKATELKHLQCLEEELKPLEEVLNLAGDASIHDLISNINVIVLELKGSETTFMCEYADETATIVEFLNRWITFSQSIISTLTGGGGSGGGGS[omitted - human IgG1 Fc with changes]
# notes: Format 1 homodimer
# B9: 2113 (Fc fusion)
# chain: APASSSTKKTQLQLEHLLLDLQMILNGINNYKNPELEEMLTAKFYMPKKATELKHLQCLEEELKPLEEVLNLAGDASIHNLISNINVIVLELKGSETTFMCEYADETATIVEFLNRWITFSQSIISTLTGGGGSGGGGS[omitted - human IgG1 Fc with changes]
# notes: Format 1 homodimer
# B10: 2114 (Fc fusion)
# chain: APASSSTKKTQLQLEHLLLDLQMILNGINNYKNPELEEMLTAKFYMPKKATELKHLQCLEEELKPLEEVLNLAGDASIHELISNINVIVLELKGSETTFMCEYADETATIVEFLNRWITFSQSIISTLTGGGGSGGGGS[omitted - human IgG1 Fc with changes]
# notes: Format 1 homodimer
# B11: 2115 (Fc fusion)
# chain: APASSSTKKTQLQLEHLLLDLQMILNGINNYKNPELEEMLTAKFYMPKKATELKHLQCLEEELKPLEEVLNLAGDASIHQLISNINVIVLELKGSETTFMCEYADETATIVEFLNRWITFSQSIISTLTGGGGSGGGGS[omitted - human IgG1 Fc with changes]
# notes: Format 1 homodimer
# B12: 2116 (Fc fusion)
# chain: APASSSTKKTQLQLEHLLLDLQMILNGINNYKNPELEEMLTAKFYMPKKATELKHLQCLEEELKPLEEVLNLAGDASIHTLISNINVIVLELKGSETTFMCEYADETATIVEFLNRWITFSQSIISTLTGGGGSGGGGS[omitted - human IgG1 Fc with changes]
# notes: Format 1 homodimer
# B13: 2131 (Fc fusion)
# chain: APASSSTKKTQLQLEHLLLDLQMILNGINNYKNPELEEMLTAKFYMPKKATELKHLQCLEEELKPLEEVLNLAGDASIHDLISDINVIVLELKGSETTFMCEYADETATIVEFLNRWITFSQSIISTLTGGGGSGGGGS[omitted - human IgG1 Fc with changes]
# notes: Format 1 homodimer
# B14: 2141 (Fc fusion)
# chain: APASSSTKKTQLQLEHLLLDLQMILNGINNYKNPELEEMLTAKFYMPKKATELKHLQCLEEELKPLEEVLNLAGDASIHDLISNINIIVLELKGSETTFMCEYADETATIVEFLNRWITFSQSIISTLTGGGGSGGGGS[omitted - human IgG1 Fc with changes]
# notes: Format 1 homodimer
# B15: 2154 (Fc fusion)
# chain: APASSSTKKTQLQLEHLLLDLQMILNGINNYKNPELEEMLTAKFYMPKKATELKHLQCLEEELKPLEEVLNLAGDASIHDLISNINVIVLQLKGSETTFMCEYADETATIVEFLNRWITFSQSIISTLTGGGGSGGGGS[omitted - human IgG1 Fc with changes]
# notes: Format 1 homodimer
# B16: 2158 (Fc fusion)
# chain: APASSSTKKTQLQLEHLLLDLQMILNGINNYKNPELEEMLTAKFYMPKKATELKHLQCLEEELKPLEEVLNLAGDASIHDLISNINVIVLELKGSETTFMCEYADETATIVEFLNRWITFSESIISTLTGGGGSGGGGS[omitted - human IgG1 Fc with changes]
# notes: Format 1 homodimer
# Biological target: T1, IL-2Rβ receptor with an avi tag and an …
# Experiment: BLI (ForteBio); biotinylated receptor on SA sensor, 100 nM IL-2 mutant molecule in solution, 1:1 model
# Description: (§1) The equilibrium dissociation constants (KD) for binding of the IL-2 mutants described above in the present invention to their receptors were measured by biological optical interferometry (ForteBio).
# (§2) The ForteBio affinity assay was conducted according to the method (Estep, P et al., High throughput solution Based measurement of antibody-antigen affinity and epitope binding. mAbs, 2013.5(2): p. 270-8) known in the art. […] The kinetic analysis was performed using a 1:1 binding model.
# (§3) The expression yields and purity of the IL-2 mutants were improved relative to the wild-type (Y045), and meanwhile, the introduction of the IL-2Rβγ binding interface amino acid mutations led to different levels of reductions in the affinity for IL-2Rβ and IL-2Rβγ.
row,Binder,Kd [nM]
1,B1,0.714
2,B2,1.39
3,B3,10.5
4,B4,27.7
5,B5,2.95
6,B6,2.31
7,B7,13.9
8,B8,13.5
9,B9,13.6
10,B10,11.3
11,B11,16.1
12,B12,17.6
13,B13,11.9
14,B14,7.56
15,B15,6.08
16,B16,6.77

# Biological target: T3, IL-2 receptor βγ complex (IL-2Rβ-Fc.Knob / IL-2Rγ-Fc.Hole heterodimer) (human, complex was biotin-labelled enzymatically (BirA); site not stated)
# T3 construct: Knobs-in-holes Fc heterodimer co-expressed in Expi293 cells; also called IL-2Rβγ; IL-2 receptor βγ protein
# Experiment: as above
# Description: as §1, §2, §3
row,Binder,Kd [nM]
1,B5,0.0867
2,B6,0.153
3,B7,0.112
4,B8,0.118
5,B9,0.247
6,B10,0.172
7,B11,0.459
8,B12,0.374
9,B13,0.467
10,B14,0.112
11,B16,0.358

# Biological target: T2, IL-2Rα receptor with an avi tag and an …
# Experiment: BLI (ForteBio); biotinylated receptor on SA sensor, 100 nM IL-2-Fc in solution
row,Binder,binding result
1,B5,no binding (tested: 100 nM)
